Whole data set: some 33,000 sequences, median “E-score (-0.5 to 0.5)” near -0.016, cut for the highest 2% near 0.32. The list shows a part of the results.
target: T1, Stp1 (UniProt B3LFK1); experiment: PBM E-score (8-mer binding enrichment) (E-score (-0.5 to 0.5)); higher = stronger / more preferred TF binding; most listed sequences are background and not binding sites; conditions: protein concentration: 200 nM; construct: GST-full length
T1 sequence: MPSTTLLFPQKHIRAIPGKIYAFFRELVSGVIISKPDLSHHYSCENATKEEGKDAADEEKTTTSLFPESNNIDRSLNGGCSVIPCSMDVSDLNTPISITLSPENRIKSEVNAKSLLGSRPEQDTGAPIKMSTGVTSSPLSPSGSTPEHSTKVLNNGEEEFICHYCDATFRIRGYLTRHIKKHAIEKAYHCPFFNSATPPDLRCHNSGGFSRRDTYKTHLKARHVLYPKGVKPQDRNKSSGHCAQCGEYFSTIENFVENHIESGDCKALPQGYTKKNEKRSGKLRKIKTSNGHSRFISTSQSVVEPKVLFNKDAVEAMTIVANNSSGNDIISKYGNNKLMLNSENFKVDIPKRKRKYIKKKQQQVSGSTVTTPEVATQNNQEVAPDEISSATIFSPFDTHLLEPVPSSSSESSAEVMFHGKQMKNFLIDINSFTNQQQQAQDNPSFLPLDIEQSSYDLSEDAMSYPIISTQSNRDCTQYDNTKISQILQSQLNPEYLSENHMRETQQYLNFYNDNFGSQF
Method in brief: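 Bound GST-tagged yeast transcription factors, applied at about 100-200 nM to double-stranded universal all-10-mer Agilent arrays, were detected with fluorescent anti-GST. Scans were normalised with masliner. A modified Wilcoxon-Mann-Whitney statistic, the E-score, was assigned to each ungapped eight-base word pooled with its reverse complement by the Universal PBM Analysis Suite.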

Compared with CATGATAG, CCTTGCTC is lower in “PBM E-score” value: -0.0255 for the first, -0.0614 for the second.

Going from CAAAGCGA to ATGCACAC, the “PBM E-score” value rises from 0.00981 to 0.148.

Going from AATTCGTG to CCGTTCCG, the “PBM E-score” value rises from 0.161 to 0.318.

Compared with CGATGTAC, AAGGACGG is lower in “PBM E-score” value: -0.0264 for the first, -0.0585 for the second.

First: ACAAGCAA
Second: CAGCCTGC
The “PBM E-score” value of the first is higher: 0.0867 for the first, -0.088 for the second.

Going from CTAAGCGC to AACCGTAA, the “PBM E-score” value rises from -0.0206 to 0.0882.

First: GTCTGAAA
Second: CAGATTAA
The “PBM E-score” value of the first is lower: 0.0495 for the first, 0.0924 for the second.

First: CTCGGACC
Second: GAATAATC
The “PBM E-score” value of the first is lower: -0.161 for the first, 0.0692 for the second.

First: ACCCCAGA
Second: AGCTGCCG
The “PBM E-score” value of the first is lower: -0.33 for the first, 0.222 for the second.

Going from ACCCGCCA to AGACCCAG, the “PBM E-score” value falls from -0.171 to -0.295.

Going from GTCTACAA to TTCGGCAA, the “PBM E-score” value rises from -0.0248 to 0.088.

Going from CAGATGCG to AACTTCGG, the “PBM E-score” value falls from 0.00161 to -0.0905.

Going from CGCAACGA to ATTTCAGA, the “PBM E-score” value falls from 0.131 to 0.044.

Compared with GTTTCATA, AGCCCTCA is lower in “PBM E-score” value: -0.0643 for the first, -0.218 for the second.

Compared with GCCCGTAC, CCACAAAC is lower in “PBM E-score” value: 0.0884 for the first, 0.0354 for the second.

First: CGTTCCAA
Second: TAAGAAAA
The “PBM E-score” value of the first is higher: 0.167 for the first, 0.0953 for the second.

First: GGTCCCCA
Second: GTTGAACA
The “PBM E-score” value of the first is lower: -0.199 for the first, -0.00185 for the second.

First: AAACTAGG
Second: CTCAAAAA
The “PBM E-score” value of the first is higher: 0.0829 for the first, 0.00023 for the second.

Going from AAAGGGAC to ATTTCGGG, the “PBM E-score” value falls from -0.055 to -0.172.

First: ACGCTCAT
Second: CGCTACGC
The “PBM E-score” value of the first is lower: -0.187 for the first, -0.027 for the second.

Going from GGTCTGCA to CTCTGTCA, the “PBM E-score” value rises from -0.154 to 0.021.

Compared with CCTAGTGA, ATTCAGAC is higher in “PBM E-score” value: -0.135 for the first, -0.0444 for the second.

First: CGTTTTTA
Second: GGGCATAC
The “PBM E-score” value of the first is higher: 0.0924 for the first, -0.00074 for the second.

Compared with CTAAAGGC, ACCGGGTC is lower in “PBM E-score” value: 0.0474 for the first, -0.219 for the second.

Compared with CGGCGTAG, ACATTTAC is lower in “PBM E-score” value: 0.335 for the first, 0.07 for the second.

First: ACAATTGC
Second: CTACGATC
The “PBM E-score” value of the first is higher: 0.0595 for the first, -0.115 for the second.

Compared with ACTCGACA, CTTTATAA is higher in “PBM E-score” value: 0.00404 for the first, 0.0982 for the second.

First: ACTGGTAT
Second: CCATTTCG
The “PBM E-score” value of the first is higher: -0.0959 for the first, -0.154 for the second.

Compared with GACTCGGA, GGGCGCCA is higher in “PBM E-score” value: -0.185 for the first, 0.309 for the second.

Compared with CCACCCTA, CTTACTTC is higher in “PBM E-score” value: -0.161 for the first, -8e-05 for the second.

Going from CGAAAGTA to GGTCTGAC, the “PBM E-score” value falls from -0.059 to -0.202.

Compared with CTGTCCAA, CTCGGTTA is lower in “PBM E-score” value: 0.0223 for the first, -0.119 for the second.

First: ACGGAAGG
Second: CACCTGGA
The “PBM E-score” value of the first is lower: -0.181 for the first, -0.138 for the second.

Compared with TCTTGTAA, ATCCTGGG is lower in “PBM E-score” value: 0.177 for the first, -0.144 for the second.

Compared with CCATTTAG, AACATAAC is higher in “PBM E-score” value: -0.00669 for the first, 0.115 for the second.

Going from CCGATTAG to GCGTGCCC, the “PBM E-score” value rises from -0.03 to 0.0203.

Compared with GAAAGGTA, AGATGCTG is lower in “PBM E-score” value: -0.0491 for the first, -0.163 for the second.

Going from CCCCGAGC to CTCCGGGC, the “PBM E-score” value falls from -0.191 to -0.307.

Going from TCAAGCCA to CTATCAAA, the “PBM E-score” value falls from -0.0664 to -0.0777.

Compared with GATGCTCC, AAAAACCC is higher in “PBM E-score” value: -0.147 for the first, -0.0397 for the second.

Compared with CTAGTGTA, GCAGCTGC is higher in “PBM E-score” value: 0.00887 for the first, 0.133 for the second.

First: TCGGCGCA
Second: CCTACGAG
The “PBM E-score” value of the first is higher: 0.243 for the first, -0.0232 for the second.

Compared with CCTAGAGA, GTTGTGCA is lower in “PBM E-score” value: -0.17 for the first, -0.214 for the second.

Compared with ATGTACTC, ACCCAATG is lower in “PBM E-score” value: -0.0367 for the first, -0.194 for the second.

First: ACGGCATC
Second: GTTTTTGA
The “PBM E-score” value of the first is higher: 0.48 for the first, 0.123 for the second.

First: CCCACCCG
Second: AACTTCGT
The “PBM E-score” value of the first is lower: -0.194 for the first, 0.00971 for the second.

Compared with ACCTTATC, AGCCTCAA is higher in “PBM E-score” value: -0.137 for the first, -0.0893 for the second.

First: GCCTTCTA
Second: CCGGTGGC
The “PBM E-score” value of the first is higher: 0.0559 for the first, 0.00746 for the second.

Compared with AAGACGGT, CTCCGCTC is higher in “PBM E-score” value: -0.169 for the first, -0.0143 for the second.

Going from ATTACCCG to ATGCTTCC, the “PBM E-score” value falls from -0.0176 to -0.0691.

Compared with GTTAGCGA, AAGGAATC is lower in “PBM E-score” value: 0.0822 for the first, -0.032 for the second.

Going from ACAGGCAG to ACACCTGA, the “PBM E-score” value rises from -0.134 to -0.0687.

Compared with CTCCGGTA, AAAGTCTG is lower in “PBM E-score” value: -0.104 for the first, -0.115 for the second.

Going from CACTGACA to CATCAATG, the “PBM E-score” value rises from 0.021 to 0.139.

Going from CTGTTCAC to TCAGCTCA, the “PBM E-score” value rises from -0.0791 to -0.0224.

Compared with GCGCAGGA, CTTCTATA is higher in “PBM E-score” value: -0.207 for the first, 0.0369 for the second.

First: CATACGAG
Second: AATACCCT
The “PBM E-score” value of the first is higher: 0.101 for the first, -0.0653 for the second.

First: CCTTACCC
Second: AAAAGCCC
The “PBM E-score” value of the first is lower: -0.151 for the first, -0.145 for the second.

Going from AGTGAGGA to AAAGCTTG, the “PBM E-score” value falls from -0.0438 to -0.0577.

Compared with GGGTTCTA, AACCTGGG is higher in “PBM E-score” value: -0.299 for the first, -0.226 for the second.

Going from GCAAAGTA to TCCCCACA, the “PBM E-score” value falls from 0.0607 to -0.298.

Going from TTAACTAA to CCCGCACA, the “PBM E-score” value falls from 0.211 to 0.0598.

Compared with AAGGTTGT, GCTTCCAA is lower in “PBM E-score” value: 0.0917 for the first, 0.0396 for the second.

First: AGTCAATA
Second: GCTTTGCC
The “PBM E-score” value of the first is lower: -0.0119 for the first, 0.0893 for the second.

Going from AGCGGCGA to CCGGTATA, the “PBM E-score” value falls from 0.386 to -0.168.

Compared with ACGGATCA, AAATTCTA is lower in “PBM E-score” value: 0.118 for the first, -0.0101 for the second.

First: CTAACAAC
Second: AACTTACC
The “PBM E-score” value of the first is higher: 0.144 for the first, -0.0292 for the second.

First: GACTAAAA
Second: ACGTATAG
The “PBM E-score” value of the first is higher: -0.0127 for the first, -0.0186 for the second.

First: GGGTCAAA
Second: AGTCCCTA
The “PBM E-score” value of the first is higher: -0.159 for the first, -0.271 for the second.

First: ATAGGATA
Second: ATGCGCAG
The “PBM E-score” value of the first is higher: -0.026 for the first, -0.224 for the second.

Compared with GTTTCCAA, ATGTAATG is higher in “PBM E-score” value: -0.115 for the first, 0.153 for the second.

First: AACAGGCC
Second: CCAAACCC
The “PBM E-score” value of the first is higher: -0.187 for the first, -0.244 for the second.

First: CAAGCCTC
Second: TTCAGAAA
The “PBM E-score” value of the first is lower: -0.34 for the first, 0.0116 for the second.

Compared with GGAGCAAA, CGGGGCGC is higher in “PBM E-score” value: -0.209 for the first, 0.163 for the second.

Compared with ACGGCGGG, CGACCGCC is lower in “PBM E-score” value: 0.289 for the first, -0.0226 for the second.

First: TAAAATCA
Second: CACGGAGA
The “PBM E-score” value of the first is lower: 0.131 for the first, 0.2 for the second.

First: AACATGTT
Second: CTCCAGGA
The “PBM E-score” value of the first is higher: -0.00786 for the first, -0.251 for the second.

First: GCCGATAA
Second: CGGGCACA
The “PBM E-score” value of the first is higher: 0.137 for the first, -0.106 for the second.

First: AGTACTTG
Second: CGATCAGA
The “PBM E-score” value of the first is higher: 0.142 for the first, -0.053 for the second.

Going from CGAATATA to ACCTCAAT, the “PBM E-score” value falls from 0.0736 to -0.128.

First: AAGTTTCG
Second: AAGTGATA
The “PBM E-score” value of the first is higher: 0.0786 for the first, -0.137 for the second.

First: TAATTGGA
Second: AGAAACCG
The “PBM E-score” value of the first is higher: 0.0604 for the first, -0.0245 for the second.

First: GTCTGATA
Second: GCAGGGGC
The “PBM E-score” value of the first is higher: -0.0359 for the first, -0.145 for the second.

Going from CGGATAAA to CCCGACTA, the “PBM E-score” value falls from 0.223 to -0.226.

Compared with CAGCGCAC, ATTGCCGG is lower in “PBM E-score” value: -0.0825 for the first, -0.104 for the second.

Compared with AGGCTCGG, TATTGGAA is higher in “PBM E-score” value: -0.136 for the first, -0.0198 for the second.

Source: the supplement of paper PMC3334620
